Experimental data reported in PubChem BioAssay AID1963576 (National Center for Advancing Translational Sciences (NCATS), 2024).
In all, about 46,000 compounds went through this assay and about 60 (0.1%) were called active. Roughly 3% stayed inconclusive and do not appear here. The call rests on the fitted dose curve; in most records, active means well fitted inhibition curve with a large enough effect; inconclusive means small, poorly fitted or top-dose-only effect; inactive means no such curve, though single readings can be large or run the other way. The list shows a part of the results.

experiment: Primary qHTS assay for Inhibitors of ovarian cancer metastasis using an organotypic tumor microenvironment (TME) model.; further: nearly all actives have a fitted effect of over 65% in size;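 on activity change, negative = inhibition: plate controls were DMSO wells for no effect and tomatine positive control wells for full effect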; settings: SKOV3ip1-GFP adhesion/invasion on 3D omental model, fluorescence; series mostly up to 45.8 µM; activity change, negative = inhibition: at the top concentration
Procedure, shortened: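 qHTS, 4-pt dose (0.36-46 umol/L); SKOV3ip1-GFP, 1,200 cells/well, no FBS; primary omental fibroblast/mesothelial co-culture 48 h pre-grown; 2 h RT + 16 h 37 C; PBS wash, 4% PFA; GFP count 488/509 nm.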

| Compound | activity change, negative = inhibition | outcome |
| --- | --- | --- |
| Cc1ccc(NC(=O)c2ccc3c(O)c(S(=O)(=O)c4ccc(Cl)cc4)c(=O)[nH]c3c2)cc1 | inactive: -8.91% |  |
| CC(=O)c1ccc(NC(=O)Nc2sc3nc4n(c(=O)c3c2C)CCC(C)CC4)cc1 (stereo not drawn) | inactive: -1.25% |  |
| COc1ccc(CN(Cc2ccco2)C(=O)COc2ccccc2OC)cc1 | inactive: -2.97% |  |
| Cc1nc(SCC(=O)Nc2ccc(C)c(Cl)c2)cc(-c2ccccc2)n1 | inactive: -0.589% |  |
| CCOc1ccc(C(=O)Oc2c(Sc3ccccc3)c(C)nn2C(C)(C)C)cc1OCC | inactive: 4.7% |  |
| CCc1ccc2occ(CC(=O)Nc3ccc(OC)c(Cl)c3)c2c1 | inactive: 7.19% |  |
| O=C(c1ccc2c(c1)CCN2S(=O)(=O)c1ccccc1)N1CCN(c2ccccc2F)CC1 | inactive: 5.59% |  |
| CC(C)c1ccc(CNC(=O)c2ccc(N3CCCC3)c(NC(=O)NCc3ccccc3)c2)cc1 | inactive: 3.19% |  |
| COc1ccccc1N1CCN(S(=O)(=O)c2ccc(F)c(C(=O)Nc3ccc(Cl)cc3C(F)(F)F)c2)CC1 | inactive: 0.204% |  |
| O=C(Nc1ccccc1Cl)[C@H](CSCc1ccccc1)N1Cc2ccccc2C1=O |  | inactive |
| Nc1ncnc2c1nc(Cl)n2[C@@H]1O[C@H](CO)[C@@H](O)[C@@H]1O | inactive: -10.8% |  |
| CCc1ccccc1-n1cnc2cc(C(=O)NC3CCCCCC3)ccc21 | inactive: -5.78% |  |
| Cc1[nH]c2ccccc2c1C1(O)C(=O)N(Cc2ccccc2)c2ccc(Cl)cc21 (stereo not drawn) | inactive: -16.3% |  |
| COc1ccc(N2C(=O)C(CC(=O)Nc3ccccc3)N(CCC3=CCCCC3)C2=O)cc1 (stereo not drawn) |  | inactive |
| Cc1ccc(OCC(=O)Nc2c(C(=O)c3ccc(Cl)cc3)oc3ccccc23)cc1C | inactive: 3.77% |  |
| CC(=O)N1CCCc2cc(S(=O)(=O)N3CCCC(C(=O)NC(C)C)C3)ccc21 (stereo not drawn) | inactive: 1.23% |  |
| CCCCNC(=O)CCc1c(C)nc2cc(-c3ccccc3)nn2c1C |  | inactive |
| CSc1ccc(-c2nc3cccc(C)n3c2Nc2ccc3c(c2)OCO3)cc1 | inactive: -19.2% |  |
| COc1ccc(-c2nnc(SC(C)C(=O)O)o2)cc1 (stereo not drawn) |  | inactive |
| COc1ccc(-n2nc(C(=O)Nc3ccc(C(C)=O)cc3)nc2-c2ccccc2)cc1 | inactive: -7.01% |  |
| CC(C)Oc1ccc(CNC(=O)c2sc3ncccc3c2-n2cccc2)cc1 | inactive: 1.32% |  |
| Cc1cc(-c2ccc(S(=O)(=O)Nc3ccc(Cl)cc3)cc2)on1 |  | inactive |
| CCOc1ccc(C2c3c(oc4ccc(C)cc4c3=O)C(=O)N2CCCN(C)C)cc1OC (stereo not drawn) | inactive: 3.75% |  |
| O=S(=O)(c1ccc(Cl)cc1)c1nc(-c2cccs2)oc1SCc1ccccc1F | inactive: -6.84% |  |

| Compound | activity change, negative = inhibition | outcome |
| --- | --- | --- |
| Cc1cn(C)c(CC(=O)Nc2ccc(F)cc2Cl)c1C(=O)O | inactive: 0.204% |  |
| COc1ccc(-c2nnc(SCCOc3ccccc3C)o2)cc1OC |  | inactive |
| Cc1ccc(OCC(=O)Nc2nonc2-c2ccc(Br)cc2)cc1C | inactive: -9.83% |  |
| NC(=O)Nc1cc(-c2cccc(F)c2)sc1C(=O)N[C@H]1CCCNC1 | inactive: -20.6% |  |
| Cc1cc(C)cc(OCCSc2nc3ccc(NC(=O)COc4ccccc4)cc3s2)c1 | inactive: -0.75% |  |
| CCOC(=O)c1c(NC(=O)C2c3ccccc3Oc3ccccc32)sc2c1CCC(CC)C2 (stereo not drawn) | inactive: 3.76% |  |
| Clc1ccc(CCNC(c2ccc(Cl)cc2)c2nnc(-c3ccccc3)o2)cc1 (stereo not drawn) | inactive: -3.69% |  |
| CCc1ccc(NC(=O)Cn2nc(SC)c(S(=O)(=O)c3ccc(OC)cc3)c2N)cc1 | inactive: -1.71% |  |
| O=C(Nc1nc2c(F)cccc2s1)c1ccc(S(=O)(=O)N2CCCc3ccccc32)cc1 |  | inactive |
| CCn1nc(C)c2c(-c3ccccc3)cc(=O)n(C(C)C(=O)Nc3cc(C)ccc3C)c21 (stereo not drawn) |  | inactive |
| COc1ccc(-c2ccc(NS(=O)(=O)c3cc(C)c(C)cc3C)cc2)nn1 | inactive: -13% |  |
| O=C(c1ccc(F)cc1)C1CCN(CCn2c(=O)[nH]c3ccccc3c2=O)CC1 | inactive: -12.3% |  |
| CCOC(=O)C(CC)N1CCN(Cc2ccc(F)cc2)C(=O)C1=O (stereo not drawn) |  | inactive |
| CCCc1nc(C(C)(C)O)c(C(=O)O)n1Cc1ccc(-c2ccccc2-c2nn[nH]n2)cc1 | inactive: 0.199% |  |
| CCOC(=O)c1c(S(=O)(=O)N2CCCC(C(=O)N3CCN(c4cc(C)ccc4C)CC3)C2)c(C)n(C)c1C (stereo not drawn) | inactive: 1.88% |  |
| CC(=O)C1=C(c2cccc([N+](=O)[O-])c2)N(C(C)=O)n2c(nnc2-c2ccc(C)cc2)S1 | inactive: -5.25% |  |
| CCS(=O)(=O)NCC(c1ccco1)N1CCN(c2ccc(F)cc2)CC1 (stereo not drawn) | inactive: -8.17% |  |
| CCc1ccc(NC(=O)Cn2c(=O)n(CCCC(=O)NCc3ccc4c(c3)OCO4)c(=O)c3ccccc32)cc1 |  | inactive |
| COc1cccc(CNC(=O)Cn2nc(C)c3sc4ccccc4c3c2=O)c1OC | inactive: -0.303% |  |
| Cc1cccc(Nc2sc(C(=O)c3ccc(Cl)cc3)c(N)c2C(N)=O)c1 | inactive: -0.777% |  |
| COc1ccc(NC(=O)c2cc(-c3ccccc3F)no2)cc1 | inactive: 6.6% |  |
| O=C(NCCCN1CCN(c2cccc(Cl)c2)CC1)c1ccc2nc(Cc3ccccc3)oc2c1 | inactive: -20.6% |  |
| O=S(=O)(c1ccc(-c2cnc(C3CC3)o2)cc1)N1CCN(c2ccccc2F)CC1 |  | inactive |
| COc1cc2c(cc1OC)n(CC(=O)c1ccc(C)cc1C)c(=O)n1nc(CCn3nc(C)cc3C)nc21 | inactive: -1.89% |  |
